Results from PubChem BioAssay AID1030 (National Center for Advancing Translational Sciences (NCATS), 2008).
“And” between values parts separate entries of the source, which are not always exact repeats. Identical values can stand only once. The whole screen tested about 220,000 compounds, of which about 16,000 (7.3%) were called active. This list was built around the results that the source calls inconclusive (neither active nor inactive); the mix of calls is not that of the screen. The call rests on the fitted dose curve; in most records, active means well fitted inhibition curve with a large enough effect (not every such curve was filed as active); inconclusive means small, poorly fitted or top-dose-only effect, or another doubt; inactive means no such curve, though single readings can be large or run the other way. Potencies of inconclusive entries are doubtful fits and often do not repeat.

target: Aldehyde dehydrogenase 1A1 (Homo sapiens) (UniProt P00352); assay: qHTS Assay for Inhibitors of Aldehyde Dehydrogenase 1 (ALDH1A1); conditions: Purified ALDH1A1, NADH fluorescence, propionaldehyde substrate; series mostly up to 75.3 µM; activity, negative = inhibition: at the top concentration;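 on activity, negative = inhibition: plate controls were no enzyme wells and a reference inhibitor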
UniProt P00352, sequence (P00352 whole entry, looked up): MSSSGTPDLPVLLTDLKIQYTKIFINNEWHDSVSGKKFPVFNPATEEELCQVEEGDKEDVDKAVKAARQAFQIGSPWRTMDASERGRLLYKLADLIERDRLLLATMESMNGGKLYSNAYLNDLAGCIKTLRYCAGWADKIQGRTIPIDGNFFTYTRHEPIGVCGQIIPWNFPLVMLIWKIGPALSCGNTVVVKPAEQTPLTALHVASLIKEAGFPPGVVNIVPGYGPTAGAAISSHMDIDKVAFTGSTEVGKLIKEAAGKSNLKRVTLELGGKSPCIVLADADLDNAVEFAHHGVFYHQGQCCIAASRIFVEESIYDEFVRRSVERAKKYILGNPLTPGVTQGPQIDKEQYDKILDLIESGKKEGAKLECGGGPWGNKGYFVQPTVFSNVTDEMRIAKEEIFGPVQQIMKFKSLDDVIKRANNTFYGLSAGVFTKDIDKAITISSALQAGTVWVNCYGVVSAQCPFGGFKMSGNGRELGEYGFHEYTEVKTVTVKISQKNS
Potency means the concentration at half of the fitted maximal effect; tags describe the fitted curve by direction and shape.

Potency, active:
CCN(CC)S(=O)(=O)c1ccc(-c2csc(C)n2)cc1 25.1 µM
COc1ccc(NC(=O)C(c2ccccc2)N2CCN(c3ccccn3)CC2)cc1Cl (centres undefined) 8.91 µM
CC(=O)N1CCN(c2ccc(NC(=O)c3ccc(N4CCCC4)c([N+](=O)[O-])c3)cc2Cl)CC1 7.94 µM
O=C(c1ccc(F)cc1)n1cc(C(=S)N2CCOCC2)c2ccccc21 31.6 µM
COc1cccc(OC)c1C(=O)Nc1nnc(-c2cccs2)s1 7.94 µM
Fc1ccc(/C=N/n2c(-c3cccs3)n[nH]c2=S)cc1 14.1 µM

Potency, inconclusive:
Cc1ccc(Nc2nc(C3CC3)cs2)cc1 39.8 µM [inhibitor, single point]
BrC(=C\c1ccccc1)/C=N/N1CCN(c2ccccn2)CC1 35.5 µM [inhibitor, single point]
Brc1ccccc1C1=Nn2c(nnc2-c2ccccc2)SC1 39.8 µM [inhibitor, single point]
CN(C)/C=C(\C#N)C(=O)Nc1ccc(F)cc1 39.8 µM [inhibitor, single point]
CC1(C)CC(=O)C2=C(C1)OC(N)=C(C#N)C21C(=O)N(CN2CCOCC2)c2ccccc21 (centres undefined) 39.8 µM [inhibitor, single point]
O=c1c(-c2ccccc2)nc2cnc(Nc3ccccc3)nc2n1Cc1cccs1 3.16 µM [inhibitor, single point]
CC1(C)[N+]([O-])=C2C(=[N+]([O-])C1(C)C)c1ccccc1/C2=N\O 39.8 µM [inhibitor, single point]
COCCOc1nc2c(c(=O)n(C)c(=O)n2C)n1Cc1cccc(OC)c1 22.4 µM [inhibitor, single point]
CN(C(=O)CCN1C(=O)C(C)(C)Nc2ccccc21)c1ccccc1 39.8 µM [inhibitor, single point]
CCOC(=O)NC1(NC2CCCCC2)Oc2ccccc2O1 28.2 µM [inhibitor, single point]
CCN(CCn1cccn1)Cc1nc(-c2ccc(OC)cc2)no1 25.1 µM [inhibitor, single point]
Cc1ccc(-c2cc(C(=O)NCCc3ccc(S(N)(=O)=O)cc3)c3ccccc3n2)cc1 28.2 µM [inhibitor, partial curve]
O=C(c1ccc(Cl)cc1)c1oc2ccccc2c1CS(=O)(=O)c1ccccc1 11.2 µM [inhibitor, partial curve]
O=C(Nc1ccc(SC(F)F)cc1)c1ccc2nccnc2c1 39.8 µM [inhibitor, single point]
Clc1ccc(C2[C@H]3CN(CC4CCCCC4)[C@H](c4ccccc4)C34CC2(c2cccnc2)C4)cn1 (some centres undefined) 28.2 µM [inhibitor, single point]
COc1cc(OC)nc(Oc2cc(/C=N/O)ccc2OC)n1 14.1 µM [inhibitor, single point]
NN/C(=C\[N+](=O)[O-])Nc1ccccc1 39.8 µM [inhibitor, single point]
CC1(C)CNC(=O)c2sc(NC(=O)c3ccccc3)nc2C1 35.5 µM [inhibitor, partial curve]
CC(C)(C)NC(=O)Cn1cnc2cc([N+](=O)[O-])ccc2c1=O 39.8 µM [inhibitor, single point]
CCn1c(=O)cc(SCC(=O)N2CCN(c3ccccc3F)CC2)c2ccccc21 25.1 µM [inhibitor, partial curve]
C=C1C2C[C@H](O)C(C)(C)[C@@]2(O)[C@H](O)C[C@]23C[C@@](C)(O)[C@H](CC[C@H]12)[C@H]3O (some centres undefined) 8.91 µM [inhibitor, single point]
Cc1onc(-c2ccccc2Cl)c1C(=O)N1CCN(c2cccc(Cl)c2)CC1 7.94 µM [inhibitor, partial curve]
CCN1CC(CN(C)Cc2nc(-c3ccco3)oc2C)CC1=O (centres undefined) 35.5 µM [inhibitor, single point]
Cc1nc(-c2ccccc2)cn(O)c1=O 28.2 µM [inhibitor, single point]
COc1cc(S(C)=O)ccc1-c1nc2ncccc2[nH]1 (centres undefined) 12.6 µM [inhibitor, partial curve] and 28.2 µM [inhibitor, partial curve]
CCN1C(=O)/C(=C/c2cccs2)S/C1=N\S(=O)(=O)c1ccc(C)cc1 0.631 µM [inhibitor, full curve]
CCOC(=O)Cn1nnc2c(sc3nc4c(c(-c5ccccc5)c32)CCC4)c1=O 31.6 µM [inhibitor, single point]
CCC(C)(CC(=O)O)CC(=O)Nc1cc(C(F)(F)F)cc(C(F)(F)F)c1 (centres undefined) 25.1 µM [inhibitor, single point]

activity, negative = inhibition, inactive:
Cc1ccc(Oc2ccc(C(=O)NCc3ccncc3)cc2)cc1 -4.71%
Cc1cc(OCC(=O)N[C@@H](Cc2ccccc2)c2nc3ccccc3[nH]2)ccc1Cl 12.1%
O=C(COC(=O)CNC(=O)c1cccc([N+](=O)[O-])c1)NCc1ccco1 10.4%
Cc1c(C(=O)C(=O)NCc2cccs2)c2ccccc2n1C 7.14%
COc1ccccc1NC(=O)CCN1C(=O)c2ccccc2S1(=O)=O -9.27%
C/C(=N\Nc1nc2ccccc2[nH]1)c1ccc2c(c1)OCO2 -0.564%
COc1ccc(OCC(=O)Nc2cc3oc4ccccc4c3cc2OC)cc1 0.892%
COc1ccccc1CN1C(=O)c2ccccc2C1C(=O)NC1CCC(C)CC1 (centres undefined) -11.4%
Cc1c(C2C(C#N)=C(N)N(c3ccccc3C#N)C3=C2C(=O)CCC3)cnn1C (centres undefined) 2.85%
CCCCOc1ccc(-c2nnn(CC(=O)NCc3ccco3)n2)cc1 -3.85%
